{"source": "PubChem BioAssay AID463173", "about": "(ICCB-Longwood Screening Facility, Harvard Medical School, 2010)", "note": "In all, about 52,000 compounds went through this assay and about 4,300 (8.3%) were called active. No stated cut-off is given here; in the data, active means survival mostly below about 52% (no sharp cut-off); inactive means mostly above about 56%. The list shows a part of the results."}
{"test_system": "DeltatarO mutant", "test": "S. aureus survival, RN4220 and DeltatarO strains – OD600, teichoic acid synthesis inhibitors, primary screen (AID 463173)", "settings": "S. aureus RN4220 wild type/DeltatarO growth, OD600, 18 h, hits give low values, screened at 18.75 µg/mL (by protocol)"}
{"compound": "COc1cc(OC)cc(C(=O)Nc2cc3c(cc2N2CCCCC2)n(C)c(=O)n3C)c1", "survival": "inactive: 83%"}
{"compound": "COc1ccc(-c2c(C#N)c(SCC(=O)Nc3cccc(Cl)c3)nc(C)c2C(=O)Nc2ccccc2)cc1OC", "survival": "inactive: 139%"}
{"compound": "CCc1ccccc1NC(=O)Cn1c(=O)n(Cc2ccco2)c(=O)c2ccccc21", "survival": "inactive: 89%"}
{"compound": "Cc1ccc(N2C(=O)CC(c3ccccc3F)C3=C2COC3=O)cc1Cl", "note": "(centres undefined)", "survival": "inactive: 119%"}
{"compound": "CCc1ccc(NC(=O)C2CCN(c3nn4cc(-c5ccc(OC)cc5)nc4s3)CC2)cc1", "survival": "inactive: 74%"}
{"compound": "COc1ccc(CNC(=O)c2cnc3sc(N4CCC(C)CC4)nn3c2=O)c(OC)c1", "survival": "inactive: 71%"}
{"compound": "Cc1c(C)n(Cc2ccccc2)c2ccc(C(=O)NCc3ccccc3F)cc12", "survival": "inactive: 88%"}
{"compound": "COc1ccccc1NC(=O)NCCCN1CCN(c2ccc(F)cc2)CC1", "survival": "inactive: 82%"}
{"compound": "O=C(c1cnn(-c2cccc(F)c2)c1-n1cccc1)N1CCN(c2ccccc2F)CC1", "survival": "inactive: 75%"}
{"compound": "COC(=O)C1=C(C)NC(C)=C(C(=O)OC)C1c1cn(-c2ccccc2)nc1-c1ccco1", "survival": "inactive: 69%"}
{"compound": "COc1ccc(-n2nc3c(N4CCC(C(=O)NCc5cccc(F)c5)CC4)nnc(C)c3c2C)cc1", "survival": "inactive: 71%"}
{"compound": "CC(=O)c1cccc(NC(=O)CN2C(=O)c3ccccc3Sc3ncccc32)c1", "survival": "inactive: 95%"}
{"compound": "N#CC1=C(N)OC2=C(CCc3ccccc32)C1c1ccccc1", "note": "(centres undefined)", "survival": "active: 2%"}
{"compound": "COc1ccc(NC(=O)c2ccc3c(c2)N(Cc2cccc(Cl)c2)C(=O)c2ccccc2S3=O)cc1Cl", "note": "(centres undefined)", "survival": "inactive: 112%"}
{"compound": "COc1ccc(C2C=C(c3ccc(F)cc3)Nc3nc(-c4ccc(Cl)cc4)nn32)cc1", "note": "(centres undefined)", "survival": "inactive: 104%"}
{"compound": "Cc1ccc2c(CNCC(C)c3ccccc3)c(C(=O)O)n(Cc3ccccc3C)c2c1", "note": "(centres undefined)", "survival": "inactive: 70%"}
{"compound": "CC1=C(C(=O)NCc2ccccc2Cl)C2(CCCCCC2)OC1=O", "survival": "inactive: 49%"}
{"compound": "CCOC(=O)C1CCN(C(=O)Cn2nc(C)n3c(cc4sccc43)c2=O)CC1", "survival": "inactive: 94%"}
{"compound": "Cc1ccccc1Cn1c(CN2CCC(C(=O)NCc3cccnc3)CC2)cc2ccccc21", "survival": "inactive: 80%"}
{"compound": "Cn1c(SCC(=O)N2CCOCC2)ncc(C(=O)Nc2ccccc2)c1=O", "survival": "inactive: 76%"}
{"compound": "COc1ccc(C(=O)Nc2cccc(-c3cn4ccsc4n3)c2)cc1OC", "survival": "inactive: 92%"}
{"compound": "CCCN1CCN(CCCNC(=O)c2ccc3c(c2)sc2nc(-c4ccc(OC)cc4)cn23)CC1", "survival": "inactive: 73%"}
{"compound": "Cc1ccccc1OCc1nnc(SCC(=O)Nc2sc(C)c(C)c2C#N)n1-c1ccccc1", "survival": "inactive: 69%"}
{"compound": "COc1cccc(C2CC(=O)Nc3c2c(=O)n(C)c2nc4ccccc4n32)c1OC", "note": "(centres undefined)", "survival": "inactive: 68%"}
{"compound": "O=C(CCn1c(=O)c2sccc2n(Cc2ccc(F)cc2)c1=O)NCc1ccc2c(c1)OCO2", "survival": "inactive: 89%"}
{"compound": "Cc1ccc(-n2nc3cc(C)c(NC(=O)c4ccc(-c5ccccc5)o4)cc3n2)cc1", "survival": "active: 46%"}
{"compound": "Cc1ccc(NC(=O)CC2Oc3ccc(C)cc3NC2=O)c(C)c1", "note": "(centres undefined)", "survival": "inactive: 75%"}
{"compound": "COc1cccc(Nc2nnc(-c3cc4ccc(O)cc4oc3=O)s2)c1", "survival": "inactive: 85%"}
{"compound": "CCOc1ccc(NC(=O)Cn2c(=O)n(CCc3ccccc3)c(=O)c3c4c(sc32)CCCC4)cc1", "survival": "inactive: 93%"}
{"compound": "Cc1ccc(Cl)cc1NC(=O)Cn1c(=O)cc(C)c2c(C)nn(C)c21", "survival": "inactive: 113%"}
{"compound": "Cc1ccc(CNC(=O)CCNS(=O)(=O)c2ccc3c(c2)oc(=O)n3C)cc1", "survival": "inactive: 124%"}
{"compound": "Cc1cc(C)c(S(=O)(=O)Nc2ccc3oc(C)c(C(=O)OC(C)C)c3c2)cc1C", "survival": "active: 48%"}
{"compound": "Cc1oc(-c2cccc(Cl)c2)nc1CN1CCC(C(=O)NC(C)C)CC1", "survival": "inactive: 103%"}
{"compound": "CCCCNC(=O)CCC1N=C2c3ccccc3N=C(SCC(=O)NCCc3ccc(OC)c(OC)c3)N2C1=O", "note": "(centres undefined)", "survival": "inactive: 64%"}
{"compound": "Nc1nc(CC(=O)NN=C2CCCCCC2)cs1", "survival": "inactive: 65%"}
{"compound": "CCN(CC)CCNC(=O)CCn1c(=O)c2cccn2c2cccnc21", "survival": "inactive: 87%"}
{"compound": "Cc1ccc2nc(-c3ccc(NC(=O)Cc4ccccc4)cc3)sc2c1", "survival": "inactive: 64%"}
{"compound": "CC(=O)c1ccc(NC(=O)Cn2nc(C(F)(F)F)c3c2CCC3)cc1", "survival": "inactive: 79%"}
{"compound": "O=C(Cn1ncc2c3ccccc3n(Cc3ccccc3)c2c1=O)NCc1cccs1", "survival": "inactive: 91%"}
{"compound": "CCc1nc2ccc(C(=O)N3CCN(c4ccccc4F)CC3)cc2nc1CC", "survival": "inactive: 77%"}
{"compound": "COc1cccc2sc(NC(=O)c3ccc4c(c3)OCCO4)nc12", "survival": "inactive: 88%"}
{"compound": "CCCCCCOc1ccc(/C=C/C(=O)Nc2sc3c(c2C(=O)OC)CCC3)cc1OC", "survival": "inactive: 69%"}
{"compound": "CCc1ccccc1NC(=O)CCNS(=O)(=O)c1ccc2c(c1)CCCC(=O)N2", "survival": "inactive: 102%"}
{"compound": "Cc1nccn1C(=O)c1ccccc1C(=O)O", "survival": "inactive: 65%"}
{"compound": "COc1ccc(NC(=O)Cn2c(=O)oc3ccccc32)cc1", "survival": "inactive: 100%"}
{"compound": "O=C(CSc1nc2ccsc2c(=O)n1Cc1ccc(F)cc1)NCc1ccc(Cl)cc1", "survival": "inactive: 76%"}
{"compound": "COc1ccc(OC)c(-c2cc(C(=O)Nc3ccc(C)c(C)c3)no2)c1", "survival": "active: -1%"}
{"compound": "CN1c2ccc(Cl)cc2-c2nc(SCC(=O)NCc3ccc(F)cc3)ncc2S1(=O)=O", "survival": "inactive: 117%"}
{"compound": "Cc1cc(Nc2ccc(Br)cc2)n2nc(-c3ccccc3C)nc2n1", "survival": "active: 27%"}
{"compound": "CC1=C(C(=O)Nc2ccc(C)cc2C)C(c2ccccc2)n2nc(SCC(=O)c3ccc(C)cc3)nc2N1", "note": "(centres undefined)", "survival": "inactive: 116%"}
{"compound": "O=C(OC(C(=O)NCC1CCCO1)c1ccc(F)cc1)c1ccco1", "note": "(centres undefined)", "survival": "inactive: 80%"}
{"compound": "COc1cc(Cn2c(=O)oc3ccc(C)cc32)ccc1OCCC(C)C", "survival": "active: -1%"}
{"compound": "CC(C)(C)c1ccc(S(=O)(=O)N2CCC(Oc3ccc(-n4cnnn4)cc3)CC2)cc1", "survival": "inactive: 69%"}
{"compound": "Cc1cn(C)c(CC(=O)NCc2cccc(Cl)c2)c1C(=O)O", "survival": "active: 20%"}
{"compound": "CC(C)(C)c1ccc(CSC2=Nc3ccccc3C3=NC(CC(=O)NCc4cccs4)C(=O)N23)cc1", "note": "(centres undefined)", "survival": "inactive: 68%"}
{"compound": "Cc1ccc(CNS(=O)(=O)c2ccc(N3CCCCS3(=O)=O)cc2)cc1", "survival": "inactive: 83%"}
{"compound": "O=C(NCC(c1ccc2c(c1)OCO2)N1CCOCC1)c1ccccc1", "note": "(centres undefined)", "survival": "inactive: 135%"}
{"compound": "Cc1c(O)nc(SCC(=O)Nc2ccc(Cl)cc2Cl)n(-c2ccc(F)cc2)c1=O", "survival": "inactive: 79%"}
{"compound": "CCN1CCN(c2ncc3c(n2)CCN(Cc2cc(Br)cs2)C3)CC1", "survival": "active: 6%"}
{"compound": "CCC(C)NC(=O)c1cc2cc(S(=O)(=O)N3CCCCC3)ccc2n1C", "note": "(centres undefined)", "survival": "inactive: 55%"}
{"compound": "Cn1c(CNc2ccc(Cl)cc2)nnc1SCc1ccc(Cl)cc1", "survival": "inactive: 68%"}
{"compound": "CCC(C)c1ccc(OCC(=O)Nc2cccc3ccc(C)nc23)cc1", "note": "(centres undefined)", "survival": "active: -3%"}
{"compound": "O=C(c1cc2sccc2n1Cc1ccc(F)cc1)N1CCc2ccccc2C1", "survival": "inactive: 66%"}
{"compound": "COc1ccc(NC(=O)c2cccc(N3CCCS3(=O)=O)c2)c(OC)c1", "survival": "inactive: 89%"}
{"compound": "CC(C)Cn1cc(NC(=O)NCc2cccc(Cl)c2)c2ccccc2c1=O", "survival": "inactive: 93%"}
{"compound": "O=C(NCCc1ccccc1)c1ccc2c(c1)N(Cc1ccc(F)cc1)C(=O)CS2", "survival": "inactive: 74%"}
{"compound": "O=C(NCCC1=CCCCC1)c1ccc2c(c1)sc1nc(-c3ccc(F)cc3)cn12", "survival": "inactive: 63%"}
{"compound": "Cc1ccc2oc(C(=O)Nc3sc4c(c3C(=O)NCC3CCCO3)CCC4)cc(=O)c2c1", "note": "(centres undefined)", "survival": "inactive: 79%"}
{"compound": "CCOC(=O)c1c(NC(=O)c2cc(=O)c3cc(C)ccc3o2)sc2c1CCCC2", "survival": "inactive: 69%"}
{"compound": "COc1ccc(Cl)cc1NC(=O)CSC1=Nc2ccccc2C2=NC(CCC(=O)NCc3ccco3)C(=O)N12", "note": "(centres undefined)", "survival": "inactive: 88%"}
{"compound": "Cc1ccc(Cn2c(CCNC(=O)c3cccc(C)c3)nc3ccccc32)cc1", "survival": "inactive: 60%"}
{"compound": "CC(=O)N/C(N)=N\\c1nc(C)c2ccc(C)cc2n1", "survival": "inactive: 73%"}
{"compound": "N#Cc1c(NC(=O)c2cnn3c(C(F)(F)F)cc(-c4ccco4)nc23)sc2c1CCCC2", "survival": "inactive: 87%"}
{"compound": "Cc1cccc(NC(=O)CN2C(=O)C3(SCC(=O)N3c3ccccc3)c3ccccc32)c1", "note": "(centres undefined)", "survival": "inactive: 123%"}
{"compound": "Cc1ccc(Cn2c(C(=O)O)c(CNCc3ccc(C)o3)c3ccc(C)cc32)cc1", "survival": "inactive: 52%"}
{"compound": "Cc1ccc(S(=O)(=O)N2CCN(Cc3ccccc3Cl)CC2)cc1", "survival": "active: 13%"}
{"compound": "COc1cccc(Cn2c(=O)n(CC3CCC(C(=O)NC(C)C)CC3)c(=O)c3sccc32)c1", "note": "(centres undefined)", "survival": "inactive: 101%"}
{"compound": "Cc1ccc(C2=NN(CC(=O)NCCc3ccccc3)C(=O)CC2)cc1", "survival": "inactive: 69%"}
{"compound": "Cc1ccc(CCNS(=O)(=O)c2ccc3c(c2)C(C(C)C)C(=O)N3)cc1", "note": "(centres undefined)", "survival": "inactive: 116%"}
{"compound": "COc1cc(NC(=O)CN2C(=O)CCc3cc(Br)ccc32)cc(OC)c1OC", "survival": "inactive: 64%"}
{"compound": "CC(=O)N1c2ccccc2C(=O)C1N1CCN(c2cccc(Cl)c2)CC1", "note": "(centres undefined)", "survival": "inactive: 90%"}
{"compound": "COc1cc(OC)c(C2CC(=O)Nc3ccc4ccccc4c32)cc1OC", "note": "(centres undefined)", "survival": "inactive: 122%"}
{"compound": "CC(NC(=O)c1cc2c(=O)n3ccccc3nc2n(C(C)C)c1=N)c1ccccc1", "note": "(centres undefined)", "survival": "inactive: 67%"}
{"compound": "COC(=O)c1ccccc1NC(=O)c1nc(-c2ccc(C)cc2)n2c1CCCCC2", "survival": "inactive: 63%"}
{"compound": "O=C(CN1C(=O)CSC1=O)NCc1ccccc1", "survival": "inactive: 95%"}
{"compound": "Cc1cc(F)ccc1NC(=O)CCS(=O)(=O)c1cc2c(cc1C)NC(=O)CO2", "survival": "inactive: 95%"}
{"compound": "COc1ccccc1Nc1ncc2c(n1)CCN(Cc1ccc(C)s1)C2", "survival": "inactive: 72%"}
{"compound": "CCOC(=O)N1CCC(NC(=O)c2c(C)nn(-c3cccc(C)c3)c2-n2cccc2)CC1", "survival": "inactive: 89%"}
{"compound": "CCOC(=O)c1ccc(NC(=O)CSc2nc3c(c(=O)[nH]2)CN(Cc2ccccc2)CC3)cc1", "survival": "inactive: 64%"}
